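Step 1: Grow cells in 96-well plates. Step 2: Expose to compound for 48 hours at 5 concentrations. Step 3: Interpolate endpoints linearly; if unreached, use highest concentration. GI50: concentration for 50% inhibition of growth. TGI: total growth inhibition.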

This assay relates to NCI-H322M lung. Nature of the assay: growth of human tumour cells (NCI), 48 h.
As to `C=C(C)C(=O)O[C@H]1C[C@@]2(C)OC(=CC2=O)/C(C)=C\[C@H]2OC(=O)C(=C)[C@H]12`, the GI50 is 12.8 µM and the TGI is greater than 33.2 µM.
Regarding `CCn1c2ccc(/C=N/OCCCN(C)C)cc2c2cc(/C=N/OCCCN(C)C)ccc21`, the GI50 is 2.59 µM and the TGI was 9.57 µM.
Take `CCC(C)[C@H]1OC(=O)[C@H](C(C)C)N(C)C(=O)[C@@H](C(C)C)OC(=O)[C@H](C(C)C)N(C)C(=O)[C@@H](C(C)CC)OC(=O)[C@H](C(C)C)N(C)C1=O` (stereo not given in full): the GI50 was 0.541 µM and the TGI turned out to be 3.52 µM.
On to `CC1=C2C(=O)[C@](C)(CO)C=C2C(=O)[C@](C)(O)C12CC2`, for which the GI50 is 2.82 µM and the TGI was found to be 10.6 µM.
Turning to `CNC(=O)c1cc(-n2ccc3cc(NC(=O)Nc4ccc(N5CCOCC5)c(C(F)(F)F)c4)ccc32)ccn1`, the GI50 is 8.16 µM and the TGI is greater than 33.3 µM.

These data come from PubChem BioAssay (NCI).
